# Values of other authors in patent publication US20220323482A1, “LNP-[…] THERAPEUTICS AND USE THEREOF FOR TREATING HUMAN SUBJECTS” (priority 2019, published 2022).
# System: chikungunya virus strains from African, Asian, and American viral lineages
molecule,measurement,value
CHIKV-24 (antibody) heavy: QVQLVESGGGVVQPGKSLRLSCAASGFTFRNYGMHWVRQAPGKGLDWVALISYDGTHKYYKDSLKGRFTISRDNFQNTVDLQINSLRPDDTAVYYCAKELATSGVVEPLDSWGQGTLVTVSS[omitted - human IgG1 constant region with changes] light: EIVLTQSPGTLSLSPGERATLSCRASQSLVSSYFGWYQQKRGQSPRLLIYAASTRATGIPDRFSGSGSGTDFTLTISRLEPEDFAVYYCQQYGNTPFTFGGGTKVEIKRTVAAPSVFIFPPSDEQLKSGTASVVCLLNNFYPREAKVQWKVDNALQSGNSQESVTEQDSKDSTYSLSSTLTLSKADYEKHKVYACEVTHQGLSSPVTKSFNRGEC,in vitro neutralizing activity EC50,< 0.01 µg/mL
